Test results as given in publication PMC5853299.
Results are given in words; binding and its absence hold for the method and conditions named. For part of these data: In cells and extracts the contact can be indirect. Some results given as binding are weak or reduced against the parent protein; the word gives no strength. Tags and fused reporters may be left off the sequences shown.

Chains of the proteins cited; added tags and fusions are not shown.
UniProt O81445: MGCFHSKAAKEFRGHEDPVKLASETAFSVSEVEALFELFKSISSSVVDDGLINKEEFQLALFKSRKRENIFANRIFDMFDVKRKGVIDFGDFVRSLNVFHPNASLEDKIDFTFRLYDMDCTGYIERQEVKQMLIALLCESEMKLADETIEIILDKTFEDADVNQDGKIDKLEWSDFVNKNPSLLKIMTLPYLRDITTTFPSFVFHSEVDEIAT

T1: ACA8 N-terminus (first 116 amino acids, 1M-I116) in the activation domain vector pGADT7 (Arabidopsis thaliana) (UniProt Q9LF79)
T1 sequence: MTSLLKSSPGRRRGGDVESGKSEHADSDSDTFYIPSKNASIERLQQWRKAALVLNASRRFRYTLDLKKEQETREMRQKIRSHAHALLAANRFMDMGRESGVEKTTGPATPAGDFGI

T2: ACA8 full-length protein fused to the C-terminal part of YFP (ACA8::YC) (Arabidopsis thaliana) (UniProt Q9LF79)
T2 sequence: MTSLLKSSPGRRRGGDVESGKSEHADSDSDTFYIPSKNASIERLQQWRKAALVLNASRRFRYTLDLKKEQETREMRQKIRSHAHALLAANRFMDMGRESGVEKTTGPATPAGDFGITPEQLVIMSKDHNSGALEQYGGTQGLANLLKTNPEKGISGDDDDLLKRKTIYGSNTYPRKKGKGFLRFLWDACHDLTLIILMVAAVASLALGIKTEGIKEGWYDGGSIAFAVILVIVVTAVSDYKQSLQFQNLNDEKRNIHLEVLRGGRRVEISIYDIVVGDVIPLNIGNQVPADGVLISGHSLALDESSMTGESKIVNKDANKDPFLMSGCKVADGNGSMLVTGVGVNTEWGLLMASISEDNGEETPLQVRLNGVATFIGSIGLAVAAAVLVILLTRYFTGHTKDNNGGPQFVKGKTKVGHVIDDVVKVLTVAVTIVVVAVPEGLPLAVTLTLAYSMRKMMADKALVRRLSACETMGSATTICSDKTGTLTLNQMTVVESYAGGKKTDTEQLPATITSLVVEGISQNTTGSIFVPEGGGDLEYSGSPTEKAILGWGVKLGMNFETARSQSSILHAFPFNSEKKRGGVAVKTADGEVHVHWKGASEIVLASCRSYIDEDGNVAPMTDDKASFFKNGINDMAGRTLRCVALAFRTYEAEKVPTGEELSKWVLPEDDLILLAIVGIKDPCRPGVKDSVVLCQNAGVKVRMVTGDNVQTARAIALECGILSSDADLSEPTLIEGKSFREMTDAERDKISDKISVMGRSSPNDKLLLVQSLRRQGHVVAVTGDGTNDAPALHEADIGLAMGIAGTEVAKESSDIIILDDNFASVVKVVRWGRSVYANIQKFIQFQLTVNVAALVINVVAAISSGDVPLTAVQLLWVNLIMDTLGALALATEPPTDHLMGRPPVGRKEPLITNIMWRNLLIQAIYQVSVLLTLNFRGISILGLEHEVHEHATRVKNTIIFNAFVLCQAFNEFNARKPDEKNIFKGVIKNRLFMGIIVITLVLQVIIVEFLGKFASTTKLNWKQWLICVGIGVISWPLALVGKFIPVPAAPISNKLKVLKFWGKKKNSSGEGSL


Columns and labels:
[1] = target: T1, ACA8 N-terminus (first 116 amino acids, 1M-I116) in the activation domain vector pGADT7 (Arabidopsis thaliana); test: two-hybrid; yeast PJ69-4A; ACA8 N-terminus in the AD vector pGADT7, CIPKs in the BD vector pGBT9.BS; serial dilutions spotted on SD-W-L-H with 2.5 mM 3AT, 30 °C, 3-5 d
[2] = target: T2, ACA8 full-length protein fused to the C-terminal part of YFP (ACA8::YC) (Arabidopsis thaliana); test: split reporter; BiFC of YN::CIPK fusions with ACA8::YC or CBL1::YC in transiently transformed N. benthamiana leaves; confocal microscopy, 4 d after infiltration
[3] = target: CBL1 fused to the C-terminal part of YFP (CBL1::YC) (Arabidopsis thaliana) (UniProt O81445); test: as above
[4] = target: T2, ACA8 full-length protein fused to the C-terminal part of YFP (ACA8::YC) (Arabidopsis thaliana); test: split reporter; BiFC of ACA8::YC with YN::CIPK9 in N. benthamiana leaf cells that also co-express the cytoplasmic mutant CBL1G2A::OFP and NUP::YC3.6

| Binder | binding [1] | binding [2] | binding [3] | binding [4] |
| --- | --- | --- | --- | --- |
| CIPK9 fused to the N-terminal part of YFP (YN::CIPK9) (enzyme, UniProt Q9MAM1 1-447) MSGSRRKATPASRTRVGNYEMGRTLGEGSFAKVKYAKNTVTGDQAAIKILDREKVFRHKMVEQLKREISTMKLIKHPNVVEIIEVMASKTKIYIVLELVNGGELFDKIAQQGRLKEDEARRYFQQLINAVDYCHSRGVYHRDLKPENLILDANGVLKVSDFGLSAFSRQVREDGLLHTACGTPNYVAPEVLSDKGYDGAAADVWSCGVILFVLMAGYLPFDEPNLMTLYKRICKAEFSCPPWFSQGAKRVIKRILEPNPITRISIAELLEDEWFKKGYKPPSFDQDDEDITIDDVDAAFSNSKECLVTEKKEKPVSMNAFELISSSSEFSLENLFEKQAQLVKKETRFTSQRSASEIMSKMEETAKPLGFNVRKDNYKIKMKGDKSGRKGQLSVATEVFEVAPSLHVVELRKTGGDTLEFHKFYKNFSSGLKDVVWNTDAAAEEQKQ |  | binds | binds | binds weakly |
| CIPK7 fused to the N-terminal part of YFP (YN::CIPK7) (enzyme, UniProt Q9XIW0 1-429) MESLPQPQNQSSPATTPAKILLGKYELGRRLGSGSFAKVHLARSIESDELVAVKIIEKKKTIESGMEPRIIREIDAMRRLRHHPNILKIHEVMATKSKIYLVMELASGGELFSKVLRRGRLPESTARRYFQQLASALRFSHQDGVAHRDVKPQNLLLDEQGNLKVSDFGLSALPEHLQNGLLHTACGTPAYTAPEVISRRGYDGAKADAWSCGVILFVLLVGDVPFDDSNIAAMYRKIHRRDYRFPSWISKQAKSIIYQMLDPNPVTRMSIETVMKTNWFKKSLETSEFHRNVFDSEVEMKSSVNSITAFDLISLSSGLDLSGLFEAKKKKERRFTAKVSGVEVEEKAKMIGEKLGYVVKKKMMKKEGEVKVVGLGRGRTVIVVEAVELTVDVVVVEVKVVEGEEDDSRWSDLITELEDIVLSWHNDIM |  |  | binds |  |
| CIPK14 in the BD vector pGBT9.BS (enzyme, UniProt Q9LZW4 1-442) MVDSDPVEFPPENRRGQLFGKYEVGKLVGCGAFAKVYHGRSTATGQSVAIKVVSKQRLQKGGLNGNIQREIAIMHRLRHPSIVRLFEVLATKSKIFFVMEFAKGGELFAKVSKGRFCEDLSRRYFQQLISAVGYCHSRGIFHRDLKPENLLLDEKLDLKISDFGLSALTDQIRPDGLLHTLCGTPAYVAPEVLAKKGYDGAKIDIWSCGIILFVLNAGYLPFNDHNLMVMYRKIYKGEFRIPKWTSPDLRRLLTRLLDTNPQTRITIEEIIHDPWFKQGYDDRMSKFHLEDSDMKLPADETDSEMGARRMNAFDIISGSPGFNLSGLFGDARKYDRVERFVSAWTAERVVERLEEIVSAENLTVAKKETWGMKIEGQKGNFAMVVEINQLTDELVMIEVRKRQRAAASGRDLWTDTLRPFFVELVHESDQTDPEPTQVHTTS | binds |  |  |  |
| CIPK14 fused to the N-terminal part of YFP (YN::CIPK14) (enzyme, UniProt Q9LZW4 1-442) MVDSDPVEFPPENRRGQLFGKYEVGKLVGCGAFAKVYHGRSTATGQSVAIKVVSKQRLQKGGLNGNIQREIAIMHRLRHPSIVRLFEVLATKSKIFFVMEFAKGGELFAKVSKGRFCEDLSRRYFQQLISAVGYCHSRGIFHRDLKPENLLLDEKLDLKISDFGLSALTDQIRPDGLLHTLCGTPAYVAPEVLAKKGYDGAKIDIWSCGIILFVLNAGYLPFNDHNLMVMYRKIYKGEFRIPKWTSPDLRRLLTRLLDTNPQTRITIEEIIHDPWFKQGYDDRMSKFHLEDSDMKLPADETDSEMGARRMNAFDIISGSPGFNLSGLFGDARKYDRVERFVSAWTAERVVERLEEIVSAENLTVAKKETWGMKIEGQKGNFAMVVEINQLTDELVMIEVRKRQRAAASGRDLWTDTLRPFFVELVHESDQTDPEPTQVHTTS |  | binds | binds |  |

More lines, now with the values ahead:

| binding [1] | binding [2] | binding [3] | binding [4] | Binder |
| --- | --- | --- | --- | --- |
| binds |  |  |  | CIPK9 in the BD vector pGBT9.BS (enzyme, UniProt Q9MAM1 1-447) MSGSRRKATPASRTRVGNYEMGRTLGEGSFAKVKYAKNTVTGDQAAIKILDREKVFRHKMVEQLKREISTMKLIKHPNVVEIIEVMASKTKIYIVLELVNGGELFDKIAQQGRLKEDEARRYFQQLINAVDYCHSRGVYHRDLKPENLILDANGVLKVSDFGLSAFSRQVREDGLLHTACGTPNYVAPEVLSDKGYDGAAADVWSCGVILFVLMAGYLPFDEPNLMTLYKRICKAEFSCPPWFSQGAKRVIKRILEPNPITRISIAELLEDEWFKKGYKPPSFDQDDEDITIDDVDAAFSNSKECLVTEKKEKPVSMNAFELISSSSEFSLENLFEKQAQLVKKETRFTSQRSASEIMSKMEETAKPLGFNVRKDNYKIKMKGDKSGRKGQLSVATEVFEVAPSLHVVELRKTGGDTLEFHKFYKNFSSGLKDVVWNTDAAAEEQKQ |
| no binding |  |  |  | CIPK7 in the BD vector pGBT9.BS (enzyme, UniProt Q9XIW0 1-429) MESLPQPQNQSSPATTPAKILLGKYELGRRLGSGSFAKVHLARSIESDELVAVKIIEKKKTIESGMEPRIIREIDAMRRLRHHPNILKIHEVMATKSKIYLVMELASGGELFSKVLRRGRLPESTARRYFQQLASALRFSHQDGVAHRDVKPQNLLLDEQGNLKVSDFGLSALPEHLQNGLLHTACGTPAYTAPEVISRRGYDGAKADAWSCGVILFVLLVGDVPFDDSNIAAMYRKIHRRDYRFPSWISKQAKSIIYQMLDPNPVTRMSIETVMKTNWFKKSLETSEFHRNVFDSEVEMKSSVNSITAFDLISLSSGLDLSGLFEAKKKKERRFTAKVSGVEVEEKAKMIGEKLGYVVKKKMMKKEGEVKVVGLGRGRTVIVVEAVELTVDVVVVEVKVVEGEEDDSRWSDLITELEDIVLSWHNDIM |
